# According to the supplement of paper PMC6206098:
# ± gives the uncertainty stated by the source. Shown are siRNA guide strands that differ only in the seed, positions 2 to 7.
# Legend:
# 3LL = test: cell viability relative to siNT1 control; higher = less toxic; details: concentration: 10 nM; 96 h; Mus musculus;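 note: Luminescence-based viability of cells reverse transfected in 384-well plates with lipid-complexed siRNAs built on a non-toxic 19mer backbone whose passenger strand carries 2′-O-methyl groups at positions 1 and 2, triplicates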
# H460 = test: cell viability relative to lipid-only control; HeyA8 human ovarian and H460 human lung cancer; M565 mouse liver and 3LL mouse lung cancer; siNT1 is a non-toxic control siRNA; higher = less toxic; details: concentration: 10 nM; 96 h; Homo sapiens
# Description: (§1)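 Arrayed screen of 4096 siRNA duplexes, each carrying one of all possible 6mer seeds at guide-strand positions 2-7 in a fixed neutral 19mer scaffold (constant flanks: U at position 1, then ACAUGUAAACCA, plus a 3' AA overhang). The passenger strand is 2'-O-methylated at positions 1-2 so only the guide strand loads into RISC. Duplexes were reverse-transfected at 10 nM with RNAiMAX in triplicate in 384-well plates; viability was read by CellTiter-Glo ATP content 96 h after transfection. Values are % viability normalised to lipid-only wells (HeyA8, H460, M565) or to siNT1 (3LL).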
# M565 = test: as above; details: concentration: 10 nM; 96 h; Mus musculus
# Description: as §1
# HeyA8 = test: as above; details: concentration: 10 nM; 96 h; Homo sapiens
# Description: as §1
# 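Throughout, for cell viability relative to lipid-only control: reverse lipid transfection in 384-well plates, in triplicate, of duplexes on a non-toxic 19mer backbone with passenger strand 2′-O-methylated at positions 1 and 2, luminescence viability read-out.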
Sequence,cell viability (3LL),cell viability (H460),cell viability (M565),cell viability (HeyA8)
UCCAGGCACAUGUAAACCAAA,54.3 ± 12%,25.7 ± 3.5%,19 ± 4.3%,22.5 ± 2.8%
UCCAGGGACAUGUAAACCAAA,35 ± 2.7%,39.5 ± 2.1%,19.3 ± 4%,45.9 ± 3.9%
UCCAGGUACAUGUAAACCAAA,88.5 ± 28%,29.5 ± 2.6%,10.9 ± 2.5%,10.3 ± 1.5%
UCCAGUAACAUGUAAACCAAA,106 ± 22%,77.7 ± 20%,46.9 ± 7%,82.6 ± 4%
UCCAGUCACAUGUAAACCAAA,59.3 ± 10%,49.3 ± 0.99%,10.3 ± 1.1%,17.7 ± 3.8%
UCCAGUGACAUGUAAACCAAA,96.1 ± 27%,67.8 ± 8.9%,38.1 ± 10%,60.1 ± 5.9%
UCCAGUUACAUGUAAACCAAA,87 ± 16%,57.6 ± 7.8%,15.9 ± 3.8%,60.8 ± 7.3%
UCCAUAAACAUGUAAACCAAA,89.3 ± 19%,53.7 ± 9.6%,71.8 ± 8.5%,92.4 ± 5%
UCCAUACACAUGUAAACCAAA,79.6 ± 17%,54.9 ± 1.7%,76.1 ± 13%,74.2 ± 7%
UCCAUAGACAUGUAAACCAAA,84 ± 21%,47.7 ± 9.2%,56.4 ± 2.9%,78.8 ± 3.1%
UCCAUAUACAUGUAAACCAAA,83 ± 12%,63.6 ± 3.3%,76.9 ± 14%,66.9 ± 5.4%
UCCAUCAACAUGUAAACCAAA,90.6 ± 14%,71.2 ± 8.3%,44 ± 10%,80.1 ± 5.4%
UCCAUCCACAUGUAAACCAAA,21 ± 10%,27.3 ± 4.8%,9 ± 2.8%,13.6 ± 1.2%
UCCAUCGACAUGUAAACCAAA,88.6 ± 24%,69 ± 3.3%,74.2 ± 11%,79.2 ± 4.2%
UCCAUCUACAUGUAAACCAAA,60.6 ± 10%,40.1 ± 2%,20.3 ± 5.5%,19.9 ± 1.2%
UCCAUGAACAUGUAAACCAAA,90.8 ± 28%,60.1 ± 7%,89.3 ± 17%,87.6 ± 12%
UCCAUGCACAUGUAAACCAAA,13.5 ± 2.4%,36.3 ± 3.3%,11.3 ± 1.9%,10.7 ± 0.38%
UCCAUGGACAUGUAAACCAAA,26.1 ± 4.1%,9.61 ± 0.65%,19.9 ± 1.7%,4.96 ± 0.25%
UCCAUGUACAUGUAAACCAAA,42.6 ± 7.5%,58.4 ± 1.2%,19 ± 2.7%,35.3 ± 5.7%
UCCAUUAACAUGUAAACCAAA,93.8 ± 26%,70 ± 2%,81.1 ± 8.9%,89.2 ± 2.6%
UCCAUUCACAUGUAAACCAAA,80.6 ± 13%,66.6 ± 2.9%,47.8 ± 3.8%,60.1 ± 2.4%
UCCAUUGACAUGUAAACCAAA,92 ± 21%,87.4 ± 5%,90.5 ± 8.2%,88.9 ± 3%
UCCAUUUACAUGUAAACCAAA,80.9 ± 17%,69.4 ± 5.5%,75.8 ± 3.1%,64.2 ± 1.9%
UCCCAAAACAUGUAAACCAAA,97.8 ± 10%,59.6 ± 8.2%,73.3 ± 13%,93 ± 9.9%
UCCCAACACAUGUAAACCAAA,88.9 ± 19%,56.8 ± 5.2%,29.8 ± 9.9%,88.3 ± 11%
UCCCAAGACAUGUAAACCAAA,101 ± 11%,60.2 ± 6%,66.9 ± 18%,77.1 ± 10%
UCCCAAUACAUGUAAACCAAA,100 ± 33%,67.4 ± 11%,64.6 ± 10%,94.8 ± 11%
UCCCACAACAUGUAAACCAAA,109 ± 20%,44.9 ± 2.7%,69.5 ± 23%,81 ± 6.2%
UCCCACCACAUGUAAACCAAA,38.1 ± 7.2%,28.4 ± 0.71%,8.55 ± 4.1%,51.1 ± 3.4%
